# In all, about 420,000 compounds went through this assay and about 64,000 (15%) were called active. The shares of active, inactive and inconclusive entries below differ from those in the screen. The call rests on the fitted dose curve; in most records, active means well fitted inhibition curve with a large enough effect; inconclusive means small, poorly fitted or top-dose-only effect; inactive means flat fitted curve, though single readings scatter. Potencies of inconclusive entries are left out as doubtful fits.
# Experiment: qHTS for Inhibitors of human tyrosyl-DNA phosphodiesterase 1 (TDP1): qHTS in cells in absence of CPT; further: nearly all actives have a fitted effect of over 55% in size
# Settings: DT40 Tdp1-/- hTDP1 cells, no CPT, ATP luminescence, 48 h; activity change, negative = growth inhibition: at 46.2 µM (top of the series) unless noted
# How it was run: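 DT40 Tdp1-/-;hTDP1 cells, no CPT (DMSO vehicle only), 400 cells/well; compounds pin-transferred; ≥48 hr, 37 °C; CellTiter-Glo 30 min RT dark, luminescence read.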
# On the % scale 0 is the no-effect control and ±100 the full control effect; potency means the concentration at half of the fitted maximal effect; tags describe the fitted curve by direction and shape.
Structure (SMILES),Potency,"activity change, negative = growth inhibition"
COc1cc(CN2CCN(C(=O)c3ccccc3F)CC2)cc(OC)c1OC,"inconclusive [inhibitor, single point]",–
COc1ccc(OC)c(N(CC(=O)Nc2cccnc2)S(=O)(=O)c2ccccc2)c1,"inconclusive [inhibitor, single point]",–
O=C(c1ccc(=O)[nH]n1)N1CCc2ccccc2C1,–,inactive: 0.54%
O=C1CCC(C(=O)Nc2cccc(S(=O)(=O)Nc3ccccc3F)c2)=NN1,active: 13 µM,–
O=C1Nc2ccccc2-c2nnnn2C1N1CCC(Cc2ccccc2)CC1 (stereo not given),active: 18.4 µM,–
Cc1ccc(NCCC(=O)c2cccs2)cc1C,active: 5.8 µM,–
O=C(Nc1ccc(F)c(Cl)c1)c1cc(S(=O)(=O)N2CCCc3ccccc32)ccc1F,active: 14.6 µM,–
O=C1c2c(-c3ccc(Br)cc3)noc2CCN1Cc1cn(-c2ccccc2)nn1,"inconclusive [inhibitor, single point]",–
CCOc1ccccc1NC(=O)CN1C(=O)C2(SCC(=O)N2c2cccc(F)c2)c2ccccc21 (stereo not given),–,inactive: -16.6%
COc1ccc(NC(=O)c2cc(-c3cccs3)on2)c(OC)c1,"inconclusive [inhibitor, single point]",–
COC(=O)c1ccc(C(=O)OC)c(NC(=O)CN2CCCCC2)c1,–,inconclusive: -32.3% [inhibitor]
CC1=C(C)CC(C(=O)NNC(=O)c2cccc(Cl)c2)C(C(=O)O)C1 (stereo not given),–,inconclusive: -35.5% [inhibitor]
COc1ccc(S(=O)(=O)N(CC(=O)NCc2ccc(C)cc2)c2ccc(Cl)cc2)cc1,–,inactive: -21%
CC(=O)Nc1ccc(NC(=O)C2(C)Cc3c(-c4ccc5c(c4)OCO5)ccnc3O2)cc1 (stereo not given),–,inactive: -8.64%
CCOc1cc(C(=O)Nc2ccc3c4c(cccc24)C(=O)N3CC)cc(OCC)c1OCC,active: 23.1 µM,–
Cc1ccc(NC(=O)C(=O)NCC(c2cccnc2)N2CCc3ccccc32)cc1Cl (stereo not given),active: 13 µM,–
COc1ccc(C(=O)/C(=C/O)N=Nc2ccc(F)cc2)cc1,"inconclusive [inhibitor, single point]",–
COc1ccc(N2CCN(S(=O)(=O)c3ccc4c(c3)CCCC4)CC2)c([N+](=O)[O-])c1,active: 23.1 µM,–
CC1CC(C)CN(C(=O)COC(=O)c2cc3ccccc3cc2O)C1 (stereo not given),"inconclusive [inhibitor, partial curve]",–
COc1ccc(NC(=O)c2sc3nc(C)c(C(=O)Nc4ccc(Cl)cc4)c(-c4ccc(Br)cc4)c3c2N)cc1,"inconclusive [inhibitor, partial curve]",–
CCSc1nnc(CNC(=O)c2ccccc2F)n1-c1ccccc1OC,–,inactive: 1.04%
Cc1ccccc1OCCn1c(=S)[nH]c2ccccc21,"inconclusive [inhibitor, single point]",–
O=C(Cn1c2ccccc2c(=O)c2ccccc21)Nc1cccc(F)c1,"inconclusive [inhibitor, single point]",–
O=C(N[C@H]1c2ccccc2C[C@H]1O)[C@H]1O[C@@H](n2ccc(=O)[nH]c2=O)[C@H](O)[C@@H]1O,–,inactive: 8.34%

Structure (SMILES),Potency,"activity change, negative = growth inhibition"
CCOC(=O)c1cnc(SC)nc1Sc1ccc(Cl)cc1Cl,"inconclusive [inhibitor, single point]",–
CCCCCN(C(=O)CCC(=O)OCC(=O)NCc1cccc(OC)c1)c1c(N)n(CCCC)c(=O)[nH]c1=O,–,inactive: -10.1%
COc1cccc(-n2nc(-c3ccnn3-c3ccccc3)c(=O)n(C)c2=O)c1,"inconclusive [inhibitor, single point]",–
CC(C)Cc1ccc(C(C)/C=C2/CCC(CN3CCCCC3)C2=O)cc1 (stereo not given),active: 2.91 µM,–
CCOC(=O)COc1c(OC)cc(Cl)cc1C1Nc2ccccc2C(=O)N1c1ccc(F)cc1 (stereo not given),"inconclusive [inhibitor, single point]",–
CCCn1c(C(C)Nc2nc(-c3ccc(C)cc3)cs2)nc2cc(Cl)c(N3CCCCC3)cc21 (stereo not given),"inconclusive [inhibitor, single point]",–
CCN1C(=O)c2cccc3c(S(=O)(=O)N(C)C)ccc1c23,"inconclusive [inhibitor, single point]",–
O=C1C(Cl)=C(NCCCN2CCOCC2)C(=O)c2ccccc21,active: 13 µM,–
CC1CC(C)CN(CCCNC(=O)c2ccc3nc(N4CCCCC4)sc3c2)C1 (stereo not given),"inconclusive [inhibitor, single point]",–
C[C@]12c3[nH]c4cc(-c5ccco5)ccc4c3CCN1C(=O)[C@@H](CC(=O)NCCC1=CCCCC1)C[C@@H]2C(=O)N1CCOCC1,active: 20.6 µM,–
O=C(CSc1nc2ccccc2c(=O)n1-c1ccccc1Cl)NCC1CCCO1 (stereo not given),–,inactive: -23.4%
COc1ccccc1N1CCN(CC(O)COc2cc(C)cc(C)c2)CC1 (stereo not given),"inconclusive [inhibitor, partial curve]",–
O=C(O)CCC(=O)N1CCc2cc(S(=O)(=O)N3CC=C(c4ccccc4)CC3)ccc21,–,inconclusive: -30.3% [inhibitor]
CN(C)c1nc(OCc2ccccc2)c2ncc(=O)[nH]c2n1,–,inconclusive: -7.5% [inhibitor]
CCOC(=O)C1=C(C)N=c2s/c(=C\c3cc(OC)c(OC)c(OC)c3)c(=O)n2C1/C=C/c1ccccc1 (stereo not given),–,inconclusive: -31.3% [inhibitor]
CC1CCN(c2nc(N(C)c3ccccc3)nc(N)c2[N+](=O)[O-])CC1,"inconclusive [inhibitor, single point]",–
O=C1C2CC=CCC2C(=O)N1Cc1ccccc1Cl (stereo not given),"inconclusive [inhibitor, single point]",–
COc1cc(C)c(NC(=S)Nc2ccc(Cl)c(Cl)c2)cc1OC,"inconclusive [inhibitor, single point]",–
COc1cccc(N/C(SCc2ccccc2C)=C(/C#N)C(=O)NCc2cccs2)c1,"inconclusive [inhibitor, single point]",–
COc1ccc(CNCc2cccc3ccccc23)cc1,"inconclusive [inhibitor, single point]",–
O=C(COC(=O)c1ccccc1C(=O)c1ccc(Cl)c([N+](=O)[O-])c1)NC1CCCCCC1,active: 23.1 µM,–
O=c1c2ccccc2n(Cc2cccc(F)c2)c(=O)n1Cc1ccccc1Cl,"inconclusive [inhibitor, single point]",–
Cc1cc(C(=O)COc2cccnc2[N+](=O)[O-])c(C)n1Cc1ccco1,active: 25.9 µM,–
COc1cccc2cc(C(=O)Nc3ccc(S(=O)(=O)NCC4CCCO4)cc3)c(=O)oc12 (stereo not given),–,inconclusive: -32.7% [inhibitor]

Structure (SMILES),Potency,"activity change, negative = growth inhibition"
CCC(=O)N(Cc1cc(=O)[nH]c2ccccc12)c1cccc(C)c1,–,inconclusive: -33.7% [inhibitor]
CCCCN(C(=O)C(C)Oc1ccc(Br)cc1)c1c(N)n(Cc2ccccc2)c(=O)[nH]c1=O (stereo not given),"inconclusive [inhibitor, single point]",–
COc1ccc(CCSc2nnc(C3CCCCC3)n2N)cc1,active: 11.6 µM,–
CCOc1ccc(/C=C/c2ccnc3ccccc23)cc1OCC,active: 11.2 µM,–
COc1cccc(CNC(=O)CCCN2C(=O)CSc3c2c(C)nn3-c2ccccc2)c1,"inconclusive [inhibitor, single point]",–
C/C(=N\NC(=O)c1nn(C)cc1Br)c1cccc(NC(=O)c2ccncc2)c1,–,inconclusive: -35.2% [inhibitor]
CCc1ccc(NC(=O)Nc2cccc(OC)c2)cc1,"inconclusive [inhibitor, single point]",–
Cc1ccc(-c2cc(C(=O)NCCc3ccccc3)c3c(-c4ccc(C)cc4)[nH]nc3n2)cc1,active: 9.2 µM,–
O=C1c2cccc3c([N+](=O)[O-])c(O)cc(c23)C(=O)N1Nc1ccccc1,"inconclusive [inhibitor, single point]",–
CCOC(=O)C1(Cc2ccccc2C)CCCN(C(=O)CN2CCCCC2=O)C1 (stereo not given),"inconclusive [inhibitor, single point]",–
CCn1cc(C(=O)N2CCN(c3cc(C)ccc3C)CC2)c(=O)c2cc(S(=O)(=O)N(C)C3CCCCC3)ccc21,active: 18.4 µM,–
CC(=O)N1CC(c2ccccc2)C(c2ccc(Cl)cc2)=N1 (stereo not given),"inconclusive [inhibitor, single point]",–
CC1CCN(C(=O)c2ccc(SCc3ccccc3F)c([N+](=O)[O-])c2)CC1,"inconclusive [inhibitor, single point]",–
O=C(Nc1ccccc1)c1cc2ccccc2o1,"inconclusive [inhibitor, single point]",–
COc1ccc(-c2ccc3c(N)c(C(=O)Nc4cc(F)ccc4C)sc3n2)cc1,active: 14.6 µM,–
O=S1(=O)N[C@@H](Cc2ccccc2)COc2cccc(N3CCSCC3)c21,–,inconclusive: -34.4% [inhibitor]
COc1ccc(N2CCN(CCCNC(=O)C3CCN(S(=O)(=O)N4CCOCC4)CC3)CC2)cc1,–,inactive: -21.8%
CCCCN(C)CCNC(=O)c1cc2c(-c3cccc(OC)c3)nn(C)c2s1,active: 20.6 µM,–
CCCCN1CCc2nc(N3CCN(c4ncccn4)CC3)ncc2C1,"inconclusive [inhibitor, single point]",–
O=C(c1cccnc1Cl)N(Cc1ccccc1)Cc1ccccc1,active: 9.2 µM,–
O=C(NC(=S)NCc1ccccc1)c1ccccc1Br,–,inactive: 7.56%
O=C(NCCN1Cc2ccccc2OC(c2ccccc2F)C1)c1cncs1 (stereo not given),"inconclusive [inhibitor, partial curve, poor fit]",–

# From PubChem BioAssay AID686978 (National Center for Advancing Translational Sciences (NCATS), 2013)
